Source: publication PMC6919601, “Identification of Plasmodium dipeptidyl aminopeptidase allosteric inhibitors by high throughput screening” (PLoS ONE, 2019)
Out of some 110,000 compounds screened, about 230 (0.21%) showed an effect of 50% or more. The list shows a part of the results.

Each molecule was assayed against DPAP1 (Plasmodium falciparum, UniProt Q8IIJ9) (assay: primary screen, percent inhibition; read by cleavage of a fluorogenic dipeptide substrate; higher = more effect of the substance).
Sequence of DPAP1 (Q8IIJ9 whole entry, looked up): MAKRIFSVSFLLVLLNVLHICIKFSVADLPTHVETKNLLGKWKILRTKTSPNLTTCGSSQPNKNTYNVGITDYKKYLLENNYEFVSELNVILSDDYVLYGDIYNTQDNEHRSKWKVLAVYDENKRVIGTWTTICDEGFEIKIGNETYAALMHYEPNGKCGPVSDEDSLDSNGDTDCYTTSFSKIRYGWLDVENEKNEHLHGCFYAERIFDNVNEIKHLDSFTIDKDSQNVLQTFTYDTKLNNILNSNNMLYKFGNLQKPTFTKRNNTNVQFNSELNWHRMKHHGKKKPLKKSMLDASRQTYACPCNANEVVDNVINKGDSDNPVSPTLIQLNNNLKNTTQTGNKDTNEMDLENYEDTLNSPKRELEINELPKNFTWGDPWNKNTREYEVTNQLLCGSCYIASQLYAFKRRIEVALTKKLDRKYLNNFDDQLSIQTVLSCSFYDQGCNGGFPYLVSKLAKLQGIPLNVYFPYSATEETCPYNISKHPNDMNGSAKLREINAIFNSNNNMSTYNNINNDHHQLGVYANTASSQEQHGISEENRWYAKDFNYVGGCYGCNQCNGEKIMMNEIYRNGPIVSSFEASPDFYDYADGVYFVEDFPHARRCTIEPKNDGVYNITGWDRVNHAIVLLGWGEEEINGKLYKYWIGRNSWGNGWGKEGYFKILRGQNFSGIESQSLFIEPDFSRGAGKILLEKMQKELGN
Set-up: species or system P. falciparum D10 trophozoite lysates; single well
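Note: 30 min substrate incubation versus DMSO and 10 µM JCP410 controls.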

Structure (SMILES) | % Inhibition @ 10 uM [%]
Cc1c(Cl)cccc1-n1cnc(=O)c2ccccc21 | -3.33
Cc1cccc(C)c1NC(=O)CN1CCCCC1 | 1.7
COc1ccc(-c2noc(CNC(=O)C(c3ccccc3)c3ccccc3)n2)cc1 | -1.22
COc1cc(CN2COc3cc(C)c4c(oc(=O)c5ccccc54)c3C2)cc(OC)c1OC | 4.13
CCC[C@H](NC(=O)C1(NC(=O)c2ccc(OC(F)(F)F)cc2)CCCCC1)C(=O)c1nnc(CC)o1 | -4.72
O=C(NCc1cccnc1)c1ccccc1Cl | -0.872
COc1cc(C2C(C#N)=C(N)OC3=C2C(=O)CC(C)(C)C3)ccc1OCc1ccccc1Cl (centres unmarked) | 5.58
CCN1CCCC1CNC(=O)C1c2ccccc2C(=O)N(CCOC)C1c1ccc(F)cc1 (centres unmarked) | 1.96
CCOC(=O)CC1(c2ccc(F)cc2)C(=O)c2ccccc2C1=O | -6.06
O=C(O)c1ccc(S(=O)(=O)N2CCCCCCC2)cc1 | -4.07
CCOC(=O)C1=C(c2ccccc2)Nc2nnnn2C1c1ccc(OC)cc1 (centres unmarked) | 2.17
CCOc1ccc2nc(N3CCC(C(=O)NCCCN4CCc5ccccc5C4)CC3)sc2c1 | 1.8
Cc1ccc(OCCSc2nc(-c3ccccc3)nc3cc(=O)[nH]n23)cc1Cl | 10.2
CCOc1cc(/C=C(\C#N)c2nn(-c3ccccc3)c(NC(C)=O)c2C#N)ccc1OC | 8.01
COc1ccc(OC)c(NS(=O)(=O)c2ccccc2)c1 | 0.983
Cc1c(Cl)cccc1NC(=O)c1cccc(N2C(=O)C3C4C=CC(C4)C3C2=O)c1 (centres unmarked) | -1.27
Cc1nc2sc(C(N)=O)c(N)c2c(C)c1CC(=O)c1ccccc1 | 5.39
CCCCN1C(=O)N(C)C2NC(=S)NC21 (centres unmarked) | -0.339
CC(C)(C)CC(=O)N1CCN(c2ccc(Cl)cc2)CC1 | -7.34
COc1cc(CCC(=O)Nc2cc(C)[nH]n2)cc(OC)c1OC | 3.47
COc1cccc(OC)c1C(=O)NCc1ccc(C)cc1 | -1.54
Clc1cccc(CSc2ncc3ccccn23)c1 | 2.9
Cc1ccc(NC(=O)CSCC(=O)NC2CCCCC2)cc1 | -2.19
COc1ccccc1C(=O)N1CCN(C2=NS(=O)(=O)c3ccccc32)CC1 | -1.4
COc1cc2nc(NCCCN3CCCCC3)n3nc(-c4ccccc4)nc3c2cc1OC | -2.42
Cc1ccc(-c2nc(CS(=O)(=O)CC(=O)NCCCc3ccccc3)c(C)o2)cc1 | -0.138

Structure (SMILES) | % Inhibition @ 10 uM [%]
COc1cccc(-c2cn3c4c(=O)n(C)c(=O)n(C)c4nc3n2-c2ccc3c(c2)OCCO3)c1 | -11.1
CCOC(=O)N1CCN(Cc2nc3c(c(=O)n(C)c(=O)n3C)n2CCCc2ccccc2)CC1 | 2
Cc1noc(C)c1S(=O)(=O)N1CCCC(C(=O)N2CCN(c3ccccn3)CC2)C1 (centres unmarked) | -1.03
O=C(Nc1cccc(-c2cn3ccsc3n2)c1)c1ccccc1Cl | 2.84
CCC[C@H](NC(=O)C(CCSc1ccccc1)CCSc1ccccc1)C(=O)c1nc2ccccc2o1 | -10.7
C=CCNC(=O)/C(C#N)=C/c1c(Oc2ccccc2Cl)nc2ccccn2c1=O | -0.828
Cc1ccc(C)c(-c2csc(N)n2)c1 | 4.26
CC(C(=O)NCCN1CCOCC1)n1c2ccccc2c2cnn(C)c(=O)c21 (centres unmarked) | -3.79
Fc1ccccc1-c1nn2c(Cc3ccccc3)nnc2s1 | 7.97
COc1ccc(OCC(=O)Nc2ccc(S(=O)(=O)Nc3cc(C)on3)cc2)cc1 | 1.52
COc1ccc(Cc2nc3c4cnn(-c5c(F)c(F)cc(F)c5F)c4ncn3n2)cc1OC | 2.19
CC(C)CC(=O)Nc1ccc(-c2cn3ccsc3n2)cc1 | 1.37
COc1ccc(CNC(=O)C2=CCN(S(=O)(=O)c3ccc(Br)cc3)CC2)cc1 | 0.277
COc1cc(C(=O)Nc2nn3c(CC(C)C)nnc3s2)cc(OC)c1OC | -2.79
CC(C)(C)Nc1nc(Cl)nc(N2CCCCC2)n1 | -2.51
CN(C)CCCN(C(=O)c1nc2ccccc2s1)c1nc2ccc(F)cc2s1 | 2.25
COc1ccc(CNC(=O)CCC(=O)N2Cc3ccccc3Oc3ncccc32)cc1 | -1.52
CCCc1nc(-c2ccc(-c3ccc(F)cc3)cc2)no1 | -0.771
CCCCN(C)S(=O)(=O)c1ccc(C(=O)Nc2sc3c(c2C(=O)OC)CCN(C)C3)cc1 | 2.04
CCCN(CCC)S(=O)(=O)c1ccc(C(=O)OCC(=O)c2ccccc2)cc1 | -4.59
OCC(CO)C(c1ccccc1)C(CO)CO | 3
CCOc1ccc(C2C3=C(CC(C)(C)CC3=O)N(CC(=O)O)C3=C2C(=O)CC(C)(C)C3)cc1OCC | -5.67
Cn1cccc1C(=O)NS(=O)(=O)c1ccccc1Cl | -1.93
Cc1cc(C)nc(SCC(=O)Nc2ccc(S(=O)(=O)Nc3onc(C)c3C)cc2)n1 | -1.52
COc1cc(CNCCO)ccc1OCc1ccc(Cl)cc1Cl | -0.0619
CCOC(=O)N1CCN(C(=O)Cn2nc(-c3ccc(Cl)cc3)ccc2=O)CC1 | 3.24

Structure (SMILES) | % Inhibition @ 10 uM [%]
CCc1ccc(C2C3=C(O)CCCC3=Nc3nn(-c4ccccc4)c(O)c32)cc1 (centres unmarked) | 2.1
CC1CC(=O)C2=C(C1)OC(N)=C(C#N)C2c1cccc(C(F)(F)F)c1 (centres unmarked) | -1.38
Cc1cc(NS(=O)(=O)c2ccc(NC(=O)c3ccc(Cl)c(Cl)c3)cc2)no1 | 4.39
O=C(Nc1ccccc1C(=O)O)c1cccc(N2C(=O)c3ccccc3C2=O)c1 | -3.24
CCN1CCN(Cc2csc3c2CCCC3)CC1 | 1.77
N#CCNC(=O)C(CCCCF)NC(=O)c1ccccc1 (centres unmarked) | -5.21
COc1ccccc1CN1CCSCC1 | -2.08
CCCCn1c(=N)c(C#N)cc2c(=O)n3cc(C)ccc3nc21 | -2.77
Cc1ccc(S(=O)(=O)n2ccc(C)n2)cc1 | -3.65
COc1ccc(OC)c(-c2noc(CSc3nc(N)cc(O)n3)n2)c1 | -1.11
CC(=O)Nc1ccc(CN2CCN(c3cccc(C(F)(F)F)c3)CC2)cc1 | 4.73
CN1CCCN(Cc2ccc(Cl)cc2Cl)CC1 | -3.56
CC(C)CCn1c(=O)c2sccc2n2c(CCCC(=O)NC3CC3)nnc12 | -1.87
O=C1N/C(=C/c2ccc(O)c(Cl)c2)C(=O)N1Cc1ccccc1F | 5.42
COCCn1ccc2nc(C)c(C(=O)O)cc2c1=O | 0.708
COc1ccc(S(=O)(=O)Cc2ccc(C(=O)N3CCN(Cc4ccccc4)CC3)o2)cc1 | -1.28
CCOC(=O)c1[nH]c2ccccc2c1NC(=O)COc1ccc(Cl)cc1 | -5.77
Nc1nonc1-n1nnc(C(=O)O)c1-c1ccc(C2CCCCC2)cc1 | 4.84
CCCN1CCN(CCCNC(=O)CN2N=C(c3ccc(Cl)cc3)CCC2=O)CC1 | -1.21
CC(C)C(C(=O)NCc1ccccn1)N1Cc2ccccc2C1=O (centres unmarked) | 0.56
COCCN1C(=O)c2ccccc2C(C(=O)N2CCCCC2C)C1c1cn(C)c2ccccc12 (centres unmarked) | 5.1
CC(=O)CCc1c(C)nc2ccccc2c1Cl | -7.15
CCn1c(C(=O)O)cc2oc(C)cc21 | 0.0882
COc1ccc(C(CC(=O)O)NC(C)=O)cc1OC (centres unmarked) | 1.62
CC1CCCC(NC(=O)Cn2ncc3c4ccccc4n(C)c3c2=O)C1C (centres unmarked) | -1.92
COc1cc(CNc2ccc(F)c(Cl)c2)cc2c1OCO2 | -2.18

Structure (SMILES) | % Inhibition @ 10 uM [%]
O=C(O)C1OC(c2cccc(Cl)c2)=NC12CC2 (centres unmarked) | 1.74
CCCCP(=O)(O)COc1ccccc1O | -0.712
O=C(COc1ccc(Br)cc1)N1CCCc2ccccc21 | -10.2
O=C(NC1CCCCC1)C(O)C(O)C(=O)NC1CCCCC1 (centres unmarked) | 1.34
N#CCNC(=O)C1(NC(=O)c2ccc(Cl)nc2)CCCCCC1 | 0.079
COc1ccc(Cc2c(O)nc(S)nc2O)cc1 | 2.6
CC(C)C(=O)n1nc(-c2ccco2)nc1NCc1ccccc1 | -1.47
COc1ccc(CN2CCCCC2)c(OC)c1 | 0.273
CCc1ccccc1OCCN1CCOCC1 | -4.8
Clc1cccc2c(NC3CCCCC3)cnnc12 | -2.15
CC1=C(C(=O)Nc2ccc(C)cn2)C(c2ccc(N(C)C)cc2)C2=C(O)CC(C)(C)CC2=N1 (centres unmarked) | 4.39
O=C(Nc1ccncc1)c1cc(-c2ccccc2)nc2ccccc12 | 1.59
c1ccc(CNCC2CCCCC2)cc1 | 2.01
CCOc1ccc(NC(=O)C2=C(C)NC(=O)NC2c2ccc(O)c(OCC)c2)cc1 (centres unmarked) | 2.19
C=CCn1c(SCC(=O)NC(=O)NC)nc2sc3c(c2c1=O)CCN(C(=O)OCC)C3 | 0.101
CN(C)c1ccc(-c2nc(-c3ccccc3)nc(-c3ccccc3)n2)cc1 | -1.29
Cc1cc(C)c(C#N)c(SCC(=O)NCCc2ccccc2)n1 | 5.18
CCCCC(=O)Nc1ccc(C(=O)c2ccccc2)cc1 | -2.65
CN(CCc1ccccn1)c1ncnc2c1cnn2C | -0.757
O=S(=O)(Nc1ccc(S(=O)(=O)N2CCc3ccccc32)cc1)c1ccc(Cl)cc1 | 3.8
COC(=O)c1cc2sc(Cl)cc2n1Cc1cc(=O)n2ccccc2n1 | -5.37
COc1ccccc1/C=c1\sc2nc3cc(C)c(C)cc3n2c1=O | -0.053
Cc1cc(C)n(-c2ncc(-c3ccccc3)nn2)n1 | 2.1
